Experimental data taken from the supplement of paper PMC8728848.
The other results are listed elsewhere or left out.

How the values were obtained:
Assay in all cases: glycan array binding signal (z-score within array); higher = stronger binding
Settings in all cases: glycan notation: IUPAC condensed, linker removed
Fuc(a1-2)Gal = molecular target: Fuc(a1-2)Gal
In short: (§1)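 From the Consortium for Functional Glycomics database, 3228 arrays were curated, keeping only those whose protein sequence was available. Binding is given as a within-array Z-score averaged across arrays sharing a protein sequence and across linkers. Negative Z-scores can be read as non-binding.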

Fuc(a1-2)Gal(b1-3)GalNAc = molecular target: Fuc(a1-2)Gal(b1-3)GalNAc
In short: as §1

[1] = molecular target: Fuc(a1-2)Gal(b1-3)GalNAc(a1-3)[Fuc(a1-2)]Gal(b1-4)Glc
In short: as §1

[2] = molecular target: Fuc(a1-2)Gal(b1-3)GalNAc(a1-3)[Fuc(a1-2)]Gal(b1-4)GlcNAc
In short: as §1

[3] = molecular target: Fuc(a1-2)Gal(b1-3)GalNAc(b1-3)Gal
In short: as §1

[4] = molecular target: Fuc(a1-2)Gal(b1-3)GalNAc(b1-3)Gal(a1-4)Gal(b1-4)Glc
In short: as §1

[5] = molecular target: Fuc(a1-2)Gal(b1-3)GalNAc(b1-4)[Neu5Ac(a2-3)]Gal(b1-4)Glc
In short: as §1

Fuc(a1-2)Gal(b1-3)GlcNAc = molecular target: Fuc(a1-2)Gal(b1-3)GlcNAc
In short: as §1

[6] = molecular target: Fuc(a1-2)Gal(b1-3)GlcNAc(b1-2)Man(a1-3)[Fuc(a1-2)Gal(b1-3)GlcNAc(b1-2)Man(a1-6)]Man(b1-4)GlcNAc(b1-4)GlcNAc
In short: as §1

[7] = molecular target: Fuc(a1-2)Gal(b1-3)GlcNAc(b1-2)Man(a1-3)[Fuc(a1-2)Gal(b1-3)GlcNAc(b1-2)Man(a1-6)]Man(b1-4)GlcNAc(b1-4)[Fuc(a1-6)]GlcNAc
In short: as §1

[8] = molecular target: Fuc(a1-2)Gal(b1-3)GlcNAc(b1-3)Gal(b1-4)Glc
In short: as §1

[9] = molecular target: Fuc(a1-2)Gal(b1-3)GlcNAc(b1-3)GalNAc
In short: as §1

[10] = molecular target: Fuc(a1-2)Gal(b1-3)GlcNAc(b1-3)[Fuc(a1-2)Gal(b1-3)GlcNAc(b1-6)]GalNAc
In short: as §1

[11] = molecular target: Fuc(a1-2)Gal(b1-3)GlcNAc(b1-3)[Gal(b1-4)GlcNAc(b1-6)]Gal(b1-4)Glc
In short: as §1

[12] = molecular target: Fuc(a1-2)Gal(b1-3)GlcNAc(b1-3)[Neu5Ac(a2-6)Gal(b1-4)GlcNAc(b1-6)]Gal(b1-4)Glc
In short: as §1

[13] = molecular target: Fuc(a1-2)Gal(b1-3)GlcNAc6S
In short: as §1

[14] = molecular target: Fuc(a1-2)Gal(b1-3)[Fuc(a1-4)]GlcNAc
In short: as §1

[15] = molecular target: Fuc(a1-2)Gal(b1-3)[Fuc(a1-4)]GlcNAc(b1-2)Man(a1-3)[Fuc(a1-2)Gal(b1-3)[Fuc(a1-4)]GlcNAc(b1-2)Man(a1-3)]Man(b1-4)GlcNAc(b1-4)GlcNAc
In short: as §1

[16] = molecular target: Fuc(a1-2)Gal(b1-3)[Fuc(a1-4)]GlcNAc(b1-2)Man(a1-3)[Fuc(a1-2)Gal(b1-3)[Fuc(a1-4)]GlcNAc(b1-2)Man(a1-6)]Man(b1-4)GlcNAc(b1-4)[Fuc(a1-6)]GlcNAc(b1-4)[Fuc(a1-6)]GlcNAc
In short: as §1

[17] = molecular target: Fuc(a1-2)Gal(b1-3)[Fuc(a1-4)]GlcNAc(b1-3)[Fuc(a1-3)[Gal(b1-4)]GlcNAc(b1-6)]Gal(b1-4)Glc
In short: as §1

[18] = molecular target: Fuc(a1-2)Gal(b1-3)[Fuc(a1-4)]GlcNAc(b1-3)[Gal(b1-4)GlcNAc(b1-6)]Gal(b1-4)Glc
In short: as §1

Fuc(a1-2)Gal(b1-4)Glc = molecular target: Fuc(a1-2)Gal(b1-4)Glc
In short: as §1

Fuc(a1-2)Gal(b1-4)Glc6S = molecular target: Fuc(a1-2)Gal(b1-4)Glc6S
In short: as §1

Fuc(a1-2)Gal(b1-4)GlcNAc = molecular target: Fuc(a1-2)Gal(b1-4)GlcNAc
In short: as §1

[19] = molecular target: Fuc(a1-2)Gal(b1-4)GlcNAc(b1-2)Man
In short: as §1

[20] = molecular target: Fuc(a1-2)Gal(b1-4)GlcNAc(b1-2)Man(a1-3)[Fuc(a1-2)Gal(b1-4)GlcNAc(b1-2)Man(a1-6)]Man(b1-4)GlcNAc(b1-4)GlcNAc
In short: as §1

[21] = molecular target: Fuc(a1-2)Gal(b1-4)GlcNAc(b1-2)Man(a1-3)[Fuc(a1-2)Gal(b1-4)GlcNAc(b1-2)Man(a1-6)]Man(b1-4)GlcNAc(b1-4)[Fuc(a1-6)]GlcNAc
In short: as §1

[22] = molecular target: Fuc(a1-2)Gal(b1-4)GlcNAc(b1-2)[Fuc(a1-2)Gal(b1-4)GlcNAc(b1-4)]Man(a1-3)[Fuc(a1-2)Gal(b1-4)GlcNAc(b1-2)Man(a1-6)]Man(b1-4)GlcNAc(b1-4)GlcNAc
In short: as §1

[23] = molecular target: Fuc(a1-2)Gal(b1-4)GlcNAc(b1-3)Gal(b1-4)GlcNAc
In short: as §1

[24] = molecular target: Fuc(a1-2)Gal(b1-4)GlcNAc(b1-3)Gal(b1-4)GlcNAc(b1-2)Man(a1-3)[Fuc(a1-2)Gal(b1-4)GlcNAc(b1-3)Gal(b1-4)GlcNAc(b1-2)Man(a1-6)]Man(b1-4)GlcNAc(b1-4)GlcNAc
In short: as §1

B1: diCBM40 CPF071 (Clostridium perfringens) (protein)
chain: MAHHHHHHVGTGSNDDDDKSPDPMLSSLGEYKDINLESSNASNITYDLEKYKNLDEGTIVVRFNSKDSKIQSLLGISNSKTKNGYFNFYVTNSRVGFELRNQKNEGNTQNGTENLVHMYKDVALNDGDNTVALKIEKNKGYKLFLNGKMIKEVKDTNTKFLNNIENLDSAFIGKTNRYGQSNEYNFKGNIGFMNIYNEPLGDDYLLSKTGETKALNGSELGSGSGLSSLGEYKDINLESSNASNITYDLEKYKNLDEGTIVVRFNSKDSKIQSLLGISNSKTKNGYFNFYVTNSRVGFELRNQKNEGNTQNGTENLVHMYKDVALNDGDNTVALKIEKNKGYKLFLNGKMIKEVKDTNTKFLNNIENLDSAFIGKTNRYGQSNEYNFKGNIGFMNIYNEPLGDDYLLSKTGETK
glycan array binding signal (z-score) (Fuc(a1-2)Gal): -0.341 | glycan array binding signal (z-score) (Fuc(a1-2)Gal(b1-3)GalNAc): -0.289 | glycan array binding signal (z-score) [1]: -0.306 | glycan array binding signal (z-score) [2]: -0.32 | glycan array binding signal (z-score) [3]: -0.136 | glycan array binding signal (z-score) [4]: -0.304 | glycan array binding signal (z-score) [5]: -0.14 | glycan array binding signal (z-score) (Fuc(a1-2)Gal(b1-3)GlcNAc): -0.159 | glycan array binding signal (z-score) [6]: 0.005 | glycan array binding signal (z-score) [7]: -0.303 | glycan array binding signal (z-score) [8]: -0.128 | glycan array binding signal (z-score) [9]: -0.317 | glycan array binding signal (z-score) [10]: -0.285 | glycan array binding signal (z-score) [11]: -0.277 | glycan array binding signal (z-score) [12]: -0.275 | glycan array binding signal (z-score) [13]: -0.281 | glycan array binding signal (z-score) [14]: -0.247 | glycan array binding signal (z-score) [15]: -0.301 | glycan array binding signal (z-score) [16]: -0.324 | glycan array binding signal (z-score) [17]: -0.327 | glycan array binding signal (z-score) [18]: -0.297 | glycan array binding signal (z-score) (Fuc(a1-2)Gal(b1-4)Glc): -0.349 | glycan array binding signal (z-score) (Fuc(a1-2)Gal(b1-4)Glc6S): -0.338 | glycan array binding signal (z-score) (Fuc(a1-2)Gal(b1-4)GlcNAc): -0.304 | glycan array binding signal (z-score) [19]: -0.326 | glycan array binding signal (z-score) [20]: -0.021 | glycan array binding signal (z-score) [21]: -0.291 | glycan array binding signal (z-score) [22]: -0.32 | glycan array binding signal (z-score) [23]: -0.34 | glycan array binding signal (z-score) [24]: -0.312
